Hit rate of the full screen: of about 150,000 compounds, about 540 (0.36%) showed an effect of 50% or more. The list shows a part of the results.

In this assay the test system is Plasmodium falciparum. Briefly: Primary screen in NF54 nanoGlo assay, in single point, at 2uM, 72h; a lower Z score goes with more inhibition. It counts as functional, Erythrocyte. The note with it: timepoint 72 hour.
By % Inhibition is commonly meant the relative decrease from the control value, in per cent. As for `O=C(c1ccc2nccn2c1)N1CCN(c2cnccn2)CC1`, the “% Inhibition” value is given as -18% and the Z score amounted to 3.91.
The like results for `NC(=O)C1CCN(c2ccc(NC(=O)CCC3CCCC3)cc2S(=O)(=O)N2CCOCC2)CC1` were, in that order, -6% and 1.11.
With `CC(C)c1ccc(NC(=O)O[C@@H]2CO[C@H]3[C@@H]2OC[C@@H]3NC(=O)c2ccccc2)cc1`, the “% Inhibition” value is given as 25% and the Z score is reported as -2.86.
For `COc1ccc(CNc2nnc(-c3ccc4c(c3)CCC4)c3ccccc23)cc1` the same measures were 0% and -0.05.
As for `CCN(CCn1cccn1)c1cc([C@H]2CCOC2)nc(N2CC(O)C2)n1`, the “% Inhibition” value is -8% and the Z score is 1.47.
Turning to `COC(=O)[C@H]1CC[C@H](C(=O)NCc2cccc(NC(=O)N(C)C)c2)CC1`, the “% Inhibition” value is -8% and the Z score turned out to be 1.35.
For `COc1ccc(NC(=O)Nc2sc(NS(=O)(=O)c3ccccc3)nc2C)cc1` the same measures were 8% and -1.05.
The like results for `Cc1cc(Oc2ccc(NS(=O)(=O)N3CCC[C@@H]3C)cc2)n[nH]1` were, in that order, -8% and 1.24.
With `NC(=NOCC(=O)Nc1ccc(Cl)cc1)c1ccccc1CN1CCCCC1`, the “% Inhibition” value is reported as -5% and the Z score was determined as 0.56.
On to `CCC(C)C(Nc1ncc(C#N)cc1Cl)C(N)=O` (centres undefined), for which the “% Inhibition” value worked out at 0% and the Z score is reported as -0.05.
On to `CC[C@@H](C(=O)N1Cc2cncnc2C1)c1ccc(OC)cc1`, for which the “% Inhibition” value is on record as -6% and the Z score is 0.88.
The like results for `Cc1cc(-c2noc(CCC(=O)N3CCC(C4OCCO4)CC3)n2)ccc1F` were, in that order, 0% and 0.03.
For the compound `O=C(O)c1cccc(Cn2cnc(-c3ccccc3)c2[C@H]2CCOC2)c1`, the “% Inhibition” value was 6% and the Z score is -0.79.
The like results for `CN(C)[C@@H](CNc1oc(-c2cccs2)nc1C#N)c1ccccc1` were, in that order, 1% and -0.2.
`CCC1(CC)C(NC(=O)N(C)CC2CC(O)C2)C(C)C1OC` (centres undefined): the “% Inhibition” value is on record as -2% and the Z score is recorded as 0.29.
For `O=C(c1cnc2ccccc2n1)N1CCC[C@H](O)CC1` the same measures were -9% and 1.88.
As for `O=C(CN1CCC[C@H]1c1nc2ccccc2s1)Nc1c(F)cccc1F`, the “% Inhibition” value is -6% and the Z score amounted to 1.03.
For the compound `NC(C(=O)Nc1ccc(-c2nc3cccc(Cl)c3s2)cc1)C1CCCO1` (centres undefined), the “% Inhibition” value was -5% and the Z score is reported as 0.87.
On to `CO[C@H]1CCN(C(=O)Cc2c3c(n(Cc4ccccc4)c2C)CCCC3=O)C1`, for which the “% Inhibition” value is on record as -6% and the Z score was 0.63.
Regarding `CN1C(=O)CC[C@H](NS(=O)(=O)CCC2CCCCC2)C1=O`, the “% Inhibition” value worked out at 0% and the Z score is 0.09.
Consider `O=C(NCCN1CCOCC1)c1c[nH]c2ccc(Cl)cc2c1=O`, for which the “% Inhibition” value came to 1% and the Z score is given as -0.13.
Turning to `COc1ccc(Nc2nc(NCc3cccnc3)nc3[nH]ncc23)cc1`, the “% Inhibition” value is -1% and the Z score was 0.15.
For `Cn1cc(-c2csc(COCc3ccccc3)n2)cn1` the same measures were -19% and 2.67.
For `CO[C@@H](C)c1noc(CN2CCC(NS(=O)(=O)c3cccs3)CC2)n1` the same measures were 0% and 0.04.
In the case of `Cc1ccc([C@H](C)NC(=O)c2ccc3c(c2)OCO3)o1`, the “% Inhibition” value is listed as -5% and the Z score was determined as 0.74.
Consider `CC(C)c1nc(N2CCC(CS(C)(=O)=O)CC2)c2cc[nH]c2n1`, for which the “% Inhibition” value was -7% and the Z score was determined as 1.01.
`CCCC1C(=O)CC(C#N)(C#N)C(C#N)(C#N)C1C` (centres undefined): the “% Inhibition” value was -10% and the Z score is 1.05.
The like results for `CC(C)(C)OC(=O)N1CCN[C@H](c2ccncc2)C1` were, in that order, -8% and 1.07.
In the case of `CCOc1ccc(-c2cc3c(=O)n(Cc4nc(-c5ccccc5)oc4C)ccn3n2)cc1Cl`, the “% Inhibition” value is -16% and the Z score worked out at 1.56.
For `CN1CCN(C[C@H]2CCCN(c3ncnc4cc(F)ccc34)C2)CC1`, the “% Inhibition” value was -4% and the Z score is on record as 0.65.
On to `CC[C@@H](C(=O)NCCc1ccccn1)n1c(Cc2ccccc2Cl)nc2cc(C)c(C)cc21`, for which the “% Inhibition” value is -3% and the Z score is 0.44.
Turning to `O=C(NC1C2CCC(C2)C1CO)c1cncc(F)c1` (centres undefined), the “% Inhibition” value was -7% and the Z score worked out at 1.29.
On to `Cc1ccc(N2CC[C@@]3(CCCN(CCc4ccccc4)C3)C2)nn1`, for which the “% Inhibition” value is on record as -19% and the Z score is listed as 2.42.
As for `COc1ccnc(CN2CC(C)(C)[C@@](C)(O)C2)c1`, the “% Inhibition” value is on record as -11% and the Z score worked out at 2.1.
The like results for `Cc1cccc(C)c1NC(=O)c1nc(N2CCCCC2)c2c(C)c(C)n(-c3ccccc3)c2n1` were, in that order, 4% and -0.6.
On to `COc1ccc(C(=O)N2CCCC2)cc1S(=O)(=O)Nc1ccc(Oc2ccccc2)cc1`, for which the “% Inhibition” value is -4% and the Z score was 0.62.
Turning to `O=C(Nc1ccsc1C(=O)NC1CCCCC1)c1cnccn1`, the “% Inhibition” value stood at 31% and the Z score is recorded as -4.01.
On to `CCC(CC)C1CCN(C(=NC)NCC2CN(C)CCN2C)C1` (centres undefined), for which the “% Inhibition” value is -10% and the Z score stood at 1.09.
Turning to `O=C1NCCN(C(=O)c2cn[nH]c2)[C@H]1c1cccc(Br)c1`, the “% Inhibition” value is -8% and the Z score worked out at 1.51.
As to `COCC1(N(C)C(=O)[C@@H](C)Cn2cncn2)CC1`, the “% Inhibition” value is reported as -12% and the Z score was 1.2.
For `Cc1[nH]nc2ncc(-c3nc(-c4ccncc4)no3)cc12` the same measures were -13% and 1.45.
Regarding `CCNC(=NC[C@H](C)c1ncc(C)s1)NCC`, the “% Inhibition” value was -10% and the Z score is 1.39.
